Molecular target: T1, IscS, cysteine desulfurase of the ISC system (E. coli), P0A6B7
T1 chain: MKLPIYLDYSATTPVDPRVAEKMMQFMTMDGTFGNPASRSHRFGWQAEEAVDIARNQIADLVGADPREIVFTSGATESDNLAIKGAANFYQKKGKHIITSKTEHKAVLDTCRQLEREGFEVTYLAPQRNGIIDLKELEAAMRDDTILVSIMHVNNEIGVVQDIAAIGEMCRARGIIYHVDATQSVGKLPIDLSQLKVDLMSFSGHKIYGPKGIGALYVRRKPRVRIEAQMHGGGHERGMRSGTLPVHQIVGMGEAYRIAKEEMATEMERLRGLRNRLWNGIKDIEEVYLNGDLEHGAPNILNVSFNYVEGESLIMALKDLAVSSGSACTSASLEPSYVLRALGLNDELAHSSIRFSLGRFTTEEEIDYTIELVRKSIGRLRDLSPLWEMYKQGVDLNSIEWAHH
Assay: native MS; desulfurase alone, ~8 uM (~4 uM dimer), 250 mM ammonium acetate pH 8.0, deconvoluted spectrum
Details: remark: other sources report otherwise

B1: IscS, cysteine desulfurase of the ISC system, P0A6B7 1-404 (enzyme)
chain: MKLPIYLDYSATTPVDPRVAEKMMQFMTMDGTFGNPASRSHRFGWQAEEAVDIARNQIADLVGADPREIVFTSGATESDNLAIKGAANFYQKKGKHIITSKTEHKAVLDTCRQLEREGFEVTYLAPQRNGIIDLKELEAAMRDDTILVSIMHVNNEIGVVQDIAAIGEMCRARGIIYHVDATQSVGKLPIDLSQLKVDLMSFSGHKIYGPKGIGALYVRRKPRVRIEAQMHGGGHERGMRSGTLPVHQIVGMGEAYRIAKEEMATEMERLRGLRNRLWNGIKDIEEVYLNGDLEHGAPNILNVSFNYVEGESLIMALKDLAVSSGSACTSASLEPSYVLRALGLNDELAHSSIRFSLGRFTTEEEIDYTIELVRKSIGRLRDLSPLWEMYKQGVDLNSIEWAHH
For B1, which stoichiometry N is on record?
Its stoichiometry N is 2.
